Source: the antibiotic and cytotoxicity screens of Wong et al. (2023)
This is one part of the list.

Experiments:
[1] = tested on: HSkMC (human skeletal muscle cells); assay: cytotoxicity call (relative viability < 0.9); conditions: 10 µM
[2] = tested on: HepG2; assay: cytotoxicity call (relative viability < 0.9); conditions: 10 µM
[3] = tested on: S. aureus RN4220; assay: growth inhibition call (relative growth <= 0.2); conditions: 50 µM

| SMILES | cytotoxicity call [1] | cytotoxicity call [2] | growth inhibition call [3] |
| --- | --- | --- | --- |
| C[C@@H](O)CC(C)(C)O | inactive | inactive | inactive |
| O=C(N[C@H](c1ccc(Cl)cc1)c1ccsc1)C1CCN(Cc2ccc(Oc3ccccc3)cc2)CC1 | inactive | inactive | inactive |
| Cl.O=C(Nc1ccccc1)OCC(CN1CCCCC1)OC(=O)Nc1ccccc1 (stereo unspecified) | inactive | active | inactive |
| Cc1noc(C)c1S(=O)(=O)Nc1ccc2c(c1)CC(=O)N([C@H](C)CO)C[C@H](C)[C@H](CN(C)C(=O)Nc1ccccc1)O2 | inactive | inactive | inactive |
| CCCN(C)C[C@H]1OCCCC[C@@H](C)Oc2ccc(NC(=O)c3ccccc3)cc2C(=O)N([C@H](C)CO)C[C@@H]1C | inactive | inactive | inactive |
| CCCCCc1c2c(cc(O)c1C(=O)O)OC(=O)c1c(cc(OC)cc1C(=O)CCCC)O2 | inactive | inactive | active |
| O=C(C[C@@H]1CC[C@@H]2[C@H](COC[C@@H](O)CN2Cc2ccccc2F)O1)N[C@H]1CCN(Cc2ccccc2)C1 | inactive | inactive | inactive |
